The text below walks through data of PubChem BioAssay AID463173 (ICCB-Longwood Screening Facility, Harvard Medical School, 2010).

The whole screen tested about 52,000 compounds, of which about 4,300 (8.3%) were called active. Cut-off read from the data, not from the text of the source: active = survival mostly below about 52% (no sharp cut-off); inactive = mostly above about 56%. The list shows a part of the results.

For the test, the system named is DeltatarO mutant. The test can be described thus: S. aureus survival, RN4220 and DeltatarO strains – OD600, teichoic acid synthesis inhibitors, primary screen (AID 463173). Conditions: S. aureus RN4220 wild type/DeltatarO growth, OD600, 18 h, hits give low values, screened at 18.75 µg/mL (by protocol).
As to `N#Cc1cc2cc3c(cc2nc1SCC(=O)NC1CCCCC1)OCCO3`, the survival was inactive: 88%.
With `CC(=O)N1CCc2c(sc3c2c(=O)n(-c2ccc(C)cc2)c(=O)n3Cc2c(F)cccc2Cl)C1` the figure was inactive: 123%; with `Cc1ccc(CNC(=O)C2CCN(S(=O)(=O)c3ccc(F)cc3)CC2)cc1`, inactive: 62%.
With `COc1ccc(CNC(=O)c2cc(-c3ccc(OC)cc3)nc3n[nH]c(-c4cccc([N+](=O)[O-])c4)c23)cc1` the figure was inactive: 68%.
Turning to `COC(=O)c1c(NC(=O)Cc2coc3cc(C)ccc23)sc2c1CCCC2`, the survival is inactive: 62%.
With `COc1ccc(CN2CCc3c(c(=O)n4ncc(C(=O)N5CCN(c6ccc(F)cc6)CC5)c4n3C)C2)cc1`, the survival was inactive: 94%.
Regarding `COc1ccccc1CNC(=O)c1cccn1-c1nnc(N2CCCCC2)s1`, the survival was active: 37%.
For `COc1ccc(-c2nc(CNS(=O)(=O)c3ccc(Br)cc3)cs2)cc1` the value was inactive: 89%.
For `COC(=O)c1ccc(C2c3c(-c4ccccc4O)n[nH]c3C(=O)N2Cc2ccncc2)cc1` (centres undefined) the value was inactive: 90%.
With `CC(C)c1nn2c(=O)cc(COC(=O)c3ccccc3NC(=O)COc3ccccc3)nc2s1` the figure was inactive: 75%.
As for `CC(=O)Nc1ccc(S(=O)(=O)NCCc2cn3ccsc3n2)cc1`, the survival is inactive: 81%.
With `CC(=O)N1CCN(C2=NC(=O)C(=C3CCCCC3)S2)CC1` the figure was inactive: 75%; with `CCOc1ccccc1NC(=O)c1c(NCc2cccs2)sc2c1CCC(C)C2` (centres undefined), inactive: 105%; with `COC(=O)Nc1ccc(S(=O)(=O)N(CCO)CCO)cc1`, inactive: 96%.
With `O=C(c1ccccc1)N(Cc1nc2ccccc2c(=O)[nH]1)C1CCCC1` the figure was inactive: 70%.
For `Cc1nnc(NC(=O)CSc2nccn2Cc2ccc(F)cc2)s1` the value was active: 0%.
On to `O=C(CSc1nc(-c2cccc(F)c2)[nH]c1-c1ccccc1)Nc1ccc2c(c1)OCCO2`, for which the survival is inactive: 94%.
For `COc1cc(C(=O)N(CCc2ccccc2)C2CC3CCC(C2)N3C)cc(OC)c1OC` (centres undefined), the survival was inactive: 102%.
With `CCC(=O)N1CCc2cc(OC)c(OC)cc2C1COc1ccccc1OC` (centres undefined) the figure was inactive: 84%.
For `CCc1ccc(NC(=O)CCCc2nnc3n(CC(C)C)c(=O)c4sccc4n23)cc1` the value was inactive: 102%.
Turning to `CC(C)CN(CC(C)C)S(=O)(=O)c1ccc(C(=O)Nc2sc3c(c2C(N)=O)CC(C)(C)NC3(C)C)cc1`, the survival was inactive: 87%.
For `O=C(Nc1c2c(nn1-c1ccc(Cl)cc1)CS(=O)(=O)C2)c1cccc(F)c1` the value was inactive: 55%.
For `COC(=O)C1=C(C)NC(C)=C(C(=O)OC)C1C1CC=CCC1` (centres undefined) the value was inactive: 101%; for `CCOC(=O)c1sc(NC(=O)CSc2nnc(Cn3nnc4ccccc43)n2C)nc1C`, inactive: 94%.
For `Cc1cc(-c2ccc(S(=O)(=O)Nc3ccccc3F)s2)on1` the value was inactive: 88%; for `CC(=O)Nc1nc(SCc2ccccc2Cl)n[nH]1`, inactive: 91%.
Consider `O=C(Nc1ccc2oc(=O)ccc2c1)c1cccs1`, for which the survival is inactive: 83%.
With `CC(NC(=O)Cc1ccc(NC(=O)N2CCSc3ncccc32)cc1)c1ccccc1` (centres undefined) the figure was inactive: 75%.
For `CCCOc1ccc(C(=O)Nc2ccc(NC(=O)c3ccccc3)c(Br)c2)cc1` the value was inactive: 129%; for `O=S(=O)(NCCc1ccccc1)c1ccc(S(=O)(=O)N2CCCCC2)cc1`, inactive: 61%; for `COc1ccccc1NC(=O)CN1C(=O)C2(SCC(=O)N2c2ccc(F)c(F)c2)c2ccccc21` (centres undefined), inactive: 90%.
Consider `CCc1cc(C(=O)NCc2ccccc2)no1`, for which the survival was inactive: 62%.
For `COc1cc(NC(=O)CSc2nc(-c3ccco3)cc(C(F)(F)F)n2)cc(OC)c1OC` the value was inactive: 54%.
With `Cc1ccc(CN2COc3ccc4c(-c5ccccc5)cc(=O)oc4c3C2)cc1` the figure was inactive: 75%.
With `Cc1c(C(=O)Nc2cccc(Cl)c2)oc2ccc(S(=O)(=O)N3CCCCCC3)cc12` the figure was inactive: 69%; with `Cc1cc(C)nc(-n2nc(C)c3c2N(C)C(=O)CC3c2ccc(Cl)cc2)n1` (centres undefined), inactive: 73%; with `COc1cccc(CNC(=O)c2ccc3c(c2)nc2n3CCOC2)c1`, inactive: 64%.
Turning to `CCOC(=O)CSc1nc2sc3c(c2c(=O)n1-c1ccccc1)CC(C(C)C)OC3` (centres undefined), the survival was inactive: 96%.
With `CCN(Cc1ccccc1)C(=O)CN1C(=O)COc2ccc(S(=O)(=O)NC3CCCC3)cc21` the figure was inactive: 78%.
With `CCOc1ccc(CNC(=O)c2ccc(CS(=O)Cc3ccc(Cl)cc3)o2)cc1` (centres undefined) the figure was inactive: 88%.
For `O=C(CN1C(=O)COc2ccc(S(=O)(=O)NC3CCCC3)cc21)Nc1ccc(Cl)cc1` the value was inactive: 77%; for `CCOC(=O)c1[nH]c(C)c(C(=O)NC(CC)Cc2ccccc2)c1C` (centres undefined), inactive: 78%; for `O=C(Nc1cccc(-c2cn3cccnc3n2)c1)c1cc(Br)ccc1Cl`, inactive: 67%.
Take `Cc1oc(CSCCSCc2cc(C(=O)O)c(C)o2)cc1C(=O)O`: the survival was inactive: 94%.
With `COc1ccc(C(=O)Nc2cc(C)c(O)c(-c3nc4ccccc4s3)c2)cc1OC` the figure was inactive: 51%; with `Cc1ccc(C)c(NC(=O)Cn2c(=O)n(CC3CCCO3)c(=O)c3ccccc32)c1` (centres undefined), inactive: 120%.
With `CCN1CCN(c2ncnc3c2cnn3-c2ccc(C)c(C)c2)CC1` the figure was inactive: 97%; with `CC(=O)Nc1ccc(NC(=O)CSc2nc3ccccc3nc2N2CCCCC2)cc1`, inactive: 57%; with `Cn1c(-n2cccc2)c(-c2c(-c3ccccc3)[nH]c3c2c(=O)[nH]c(=O)n3C)c(=O)[nH]c1=O`, inactive: 60%.
With `Cc1ccc2c(c1)N(CC(=O)NCCc1ccc(Cl)cc1)C(=O)c1cccnc1O2` the figure was inactive: 107%.
With `CCOC(=O)c1c(C)[nH]c(C)c1S(=O)(=O)N1CCCC(C(=O)NCc2ccccc2Cl)C1` (centres undefined), the survival is inactive: 89%.
With `CCc1ccccc1Nc1ncnc2c1cnn2-c1ccc(C)cc1C` the figure was inactive: 75%; with `COc1ccc(C(=O)Nc2nnc(S(=O)(=O)N3CCN(c4ccc(F)cc4)CC3)s2)cc1`, inactive: 56%; with `CC(C)COc1ccc(C(=O)Nc2nnc(S(=O)(=O)N(C)Cc3ccco3)s2)cc1`, inactive: 79%.
For `COc1cccc(CNC(=O)c2cc3c(=O)n(Cc4cccnc4)ccc3nc2C)c1`, the survival is inactive: 144%.
For `CCc1cccc(NC(c2ccccc2)c2nnc(-c3ccccc3F)o2)c1` (centres undefined) the value was active: 11%; for `Cc1ccc(Nc2c(-c3cccnc3)nc3ccc(Cl)cn23)cc1`, inactive: 83%.
For `O=C(Cn1nnc(-c2ccc(S(=O)(=O)N3CCCC3)cc2)n1)Nc1ccccc1-n1cccc1` the value was inactive: 100%; for `O=C(O)CCNC(=O)C(c1ccccc1)c1ccccc1`, inactive: 109%.
For `CCOC(=O)C1CCN(C(=O)c2c(C)nn(-c3ccc(F)cc3)c2-n2cccc2)CC1` the value was inactive: 66%.
For the compound `COc1ccc2cc(CCNS(=O)(=O)c3ccc(C)cc3)c(=O)[nH]c2c1`, the survival was inactive: 72%.
Consider `CCC(C)NC(=O)Cn1c(=O)n(-c2ccc(OC)c(OC)c2)c(=O)c2ccccc21` (centres undefined), for which the survival was inactive: 95%.
In the case of `Cc1ccc2oc(-c3cc(NC(=O)CC(C)C)ccc3Cl)nc2c1`, the survival is inactive: 87%.
As for `CCCc1cc(=O)oc2c(C)c3c(cc12)CN(CCc1ccc(Cl)cc1)CO3`, the survival is active: 39%.
For `Cc1ccc2c(c1)Cc1c(nc(-c3ccc(F)cc3)nc1SCC(=O)N1CCCCC1)O2` the value was inactive: 57%; for `CCOCCCn1c(SCC(=O)Nc2ccc(CC)cc2)nc2ccccc2c1=O`, inactive: 77%; for `COc1ccc(C(=O)N(Cc2sccc2C)C2CCS(=O)(=O)C2)cc1` (centres undefined), inactive: 75%.
Regarding `COc1cc(NC(=O)Cn2ccc3ccccc3c2=O)cc(OC)c1OC`, the survival is inactive: 89%.
For the compound `Cc1cccc(NC(=O)CC(C)(C)C)c1`, the survival is inactive: 88%.
With `Cc1cccc(OCC(=O)Nc2ccc3c(c2)nc(CN2CCCCC2)n3C)c1` the figure was inactive: 86%; with `O=S(=O)(c1ccc(-c2csc(=Nc3ccc(F)cc3)n2CCCCCCO)cc1)N1CCCC1`, inactive: 56%.
For `CCCc1nnc(NC(=O)Cc2coc3c(C)c(C)ccc23)s1`, the survival is inactive: 89%.
For `Cc1ccc(Cl)cc1N1CCN(S(=O)(=O)c2ccc3c(c2)C(C(C)C)C(=O)N3)CC1` (centres undefined) the value was inactive: 90%; for `CCc1cc(=O)[nH]c(SCc2nc(-c3cccc(Cl)c3)no2)n1`, inactive: 49%.
As for `O=C(Cn1nc(C(F)(F)F)c2c1CCC2)NC1CCCC1`, the survival was inactive: 94%.
For `O=C(COCc1cc(-c2cccs2)on1)NCc1ccc(F)cc1` the value was inactive: 69%; for `O=C(Nc1ccc(Cl)cc1)c1ccc(-n2cnnc2)cc1`, inactive: 84%; for `Cc1ccccc1C(=O)NNc1ncnc2c1cnn2-c1cccc(Cl)c1`, inactive: 69%.
With `CC(=O)c1ccc(NC(=O)CC2Nc3cc(C)c(C)cc3NC2=O)cc1` (centres undefined), the survival is inactive: 65%.
With `CCCc1ccc(NC(=O)C2CCCN(c3cnccn3)C2)cc1` (centres undefined) the figure was inactive: 76%.
With `CCOc1cc(CNC(=O)Cn2ncn3c(cc4cc(F)ccc43)c2=O)cc(OCC)c1OCC` the figure was inactive: 67%; with `Cc1ccc(Cn2c(CNC(=O)c3ccc(Cl)c([N+](=O)[O-])c3)nc3cccnc32)cc1`, inactive: 88%; with `COc1cccc(-c2oc3ccc(C)cc3c(=O)c2O)c1`, inactive: 92%.
For `CCOc1ccc(Nc2nc(C)c(NC(=O)c3cccc(F)c3)c(Nc3ccc(OCC)cc3)n2)cc1` the value was inactive: 111%.
For `Cc1noc(C)c1S(=O)(=O)N(CC(=O)NCCc1ccc(Cl)cc1)c1ccc(C(C)C)cc1`, the survival is inactive: 86%.
Consider `CCC1Oc2ccc(C)cc2N(CC(=O)N2CCN(c3ccccc3OC)CC2)C1=O` (centres undefined), for which the survival was inactive: 88%.
For `CCOc1ccc(CNC(=O)CN2N=C(c3ccccc3)CCC2=O)cc1OC` the value was inactive: 128%; for `Cc1ccc(-n2ncc(C(=O)NCCN3CCN(C)CC3)c2C2CCN(C(=O)OC(C)(C)C)CC2)cc1`, inactive: 67%; for `Cc1nc(C)c(-c2ccc(SCC(=O)Nc3cccc(C)c3C)nn2)s1`, inactive: 101%.
